# Laboratory results published in the supplement of paper PMC8728848.
# This is one part of the list.
# B1: PX9961U-pdi-543-24-543 (Parabacteroides distasonis) (protein)
# chain: EEPVGEFLPGQVESEENIEGIVTGAYAVLDGYYASDAINSGCSNWQFGDVVSDDAYKGGGGTGDQNQIHLMEIFNANPTGIDFEARWAALYEGIKRCNQAIRLLNGSEVKNKEQRLAEMRFLRGHYYFNLKIIYNQIPWIDETLVDPNEYNKKSNIEFSSDQLWEKILEEFSAAYKVLPESQADYGRPTKMAARAYMAKVYLYQSKWKECLEACDEVIQSGKYELFPDFRNVFLPENDNCSEIIFAIQLSINDGSPNNENGSYGDRLLPPGGPYPVYGFLRPTQNLVNAYKTDVKGLPYNDGKDVSENDYVDVRLDHTLARPNIPFMDVQLYDWTPREASVYGPYSPKKRLVSLNSTYYSPIWPYVNALNFYVIRYADLLLWRAEAAIETGDLETGRKYINMIRERAKNTQHVKTMDQSQDAANYKVGVYDEPFKSKNEAVQALRMERRLEMAHEGIRFFDLVRWGVADEVINAYIAKEKVFRSHLQNAHFVKGKHEYFPIPQSMIDICGTEVMKQNPGY
# Key:
# Assay in all cases: glycan array binding signal (z-score within array); higher = stronger binding
# Settings in all cases: glycan notation: IUPAC condensed, linker removed
# Neu5Ac(a2-8)Neu5Ac = target: Neu5Ac(a2-8)Neu5Ac
# Procedure, shortened: (§1)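 Glycan array data were curated from 3228 arrays in the Consortium for Functional Glycomics database and kept only where the protein sequence was available. Glycan names were converted to IUPAC-condensed notation, and columns mapping to the same glycan were averaged. The binding signal is a within-array Z-score, averaged across arrays of the same protein sequence at different concentrations or buffers and across linkers. Negative Z-scores can be read as non-binding.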
# [1] = target: Neu5Ac(a2-8)Neu5Ac(a2-3)Gal(b1-3)GalNAc(b1-4)[Neu5Ac(a2-3)]Gal(b1-4)Glc
# Procedure, shortened: as §1
# [2] = target: Neu5Ac(a2-8)Neu5Ac(a2-3)Gal(b1-3)GalNAc(b1-4)[Neu5Ac(a2-8)Neu5Ac(a2-3)]Gal(b1-4)Glc
# Procedure, shortened: as §1
# [3] = target: Neu5Ac(a2-8)Neu5Ac(a2-3)Gal(b1-4)Glc
# Procedure, shortened: as §1
# [4] = target: Neu5Ac(a2-8)Neu5Ac(a2-3)Gal(b1-4)GlcNAc
# Procedure, shortened: as §1
# [5] = target: Neu5Ac(a2-8)Neu5Ac(a2-3)[Gal(b1-3)GalNAc(b1-4)]Gal(b1-4)Glc
# Procedure, shortened: as §1
# [6] = target: Neu5Ac(a2-8)Neu5Ac(a2-3)[GalNAc(b1-4)]Gal(b1-4)Glc
# Procedure, shortened: as §1
# [7] = target: Neu5Ac(a2-8)Neu5Ac(a2-8)Neu5Ac
# Procedure, shortened: as §1
# [8] = target: Neu5Ac(a2-8)Neu5Ac(a2-8)Neu5Ac(a2-3)Gal(b1-4)Glc
# Procedure, shortened: as §1
# [9] = target: Neu5Ac(a2-8)Neu5Ac(a2-8)Neu5Ac(a2-3)[Gal(b1-3)GalNAc(b1-4)]Gal(b1-4)Glc
# Procedure, shortened: as §1
# [10] = target: Neu5Ac(a2-8)Neu5Ac(a2-8)Neu5Ac(a2-3)[GalNAc(b1-4)]Gal(b1-4)Glc
# Procedure, shortened: as §1
# [11] = target: Neu5Ac(a2-8)Neu5Ac(a2-8)Neu5Ac(a2-8)Neu5Ac(a2-3)[GalNAc(b1-4)]Gal(b1-4)Glc
# Procedure, shortened: as §1
# [12] = target: Neu5Ac(a2-8)Neu5Gc(a2-3)Gal(b1-4)GlcNAc
# Procedure, shortened: as §1
# [13] = target: Neu5Ac(b2-6)Gal(b1-4)GlcNAc
# Procedure, shortened: as §1
# Neu5Ac(b2-6)GalNAc = target: Neu5Ac(b2-6)GalNAc
# Procedure, shortened: as §1
# [14] = target: Neu5Ac9Ac(a2-3)Gal(b1-3)GlcNAc
# Procedure, shortened: as §1
# [15] = target: Neu5Ac9Ac(a2-3)Gal(b1-4)GlcNAc
# Procedure, shortened: as §1
# [16] = target: Neu5Ac9Ac(a2-6)Gal(b1-4)GlcNAc
# Procedure, shortened: as §1
# [17] = target: Neu5Gc(a2-3)Gal(b1-3)GlcNAc
# Procedure, shortened: as §1
# [18] = target: Neu5Gc(a2-3)Gal(b1-3)[Fuc(a1-4)]GlcNAc
# Procedure, shortened: as §1
# Neu5Gc(a2-3)Gal(b1-4)Glc = target: Neu5Gc(a2-3)Gal(b1-4)Glc
# Procedure, shortened: as §1
# [19] = target: Neu5Gc(a2-3)Gal(b1-4)GlcNAc
# Procedure, shortened: as §1
# [20] = target: Neu5Gc(a2-3)Gal(b1-4)GlcNAc(b1-3)Gal(b1-4)GlcNAc(b1-2)Man(a1-3)[Neu5Gc(a2-3)Gal(b1-4)GlcNAc(b1-3)Gal(b1-4)GlcNAc(b1-2)Man(a1-6)]Man(b1-4)GlcNAc(b1-4)GlcNAc
# Procedure, shortened: as §1
# [21] = target: Neu5Gc(a2-3)Gal(b1-4)[Fuc(a1-3)]GlcNAc
# Procedure, shortened: as §1
# [22] = target: Neu5Gc(a2-6)Gal(b1-4)GlcNAc
# Procedure, shortened: as §1
# Neu5Gc(a2-6)GalNAc = target: Neu5Gc(a2-6)GalNAc
# Procedure, shortened: as §1
# [23] = target: Neu5Gc(a2-8)Neu5Ac(a2-3)Gal(b1-4)GlcNAc
# Procedure, shortened: as §1
# [24] = target: Neu5Gc(a2-8)Neu5Gc(a2-3)Gal(b1-4)GlcNAc
# Procedure, shortened: as §1
# [25] = target: Neu5Gc(a2-8)Neu5Gc(a2-3)Gal(b1-4)GlcNAc(b1-3)Gal(b1-4)GlcNAc
# Procedure, shortened: as §1
# [26] = target: Neu5Gc(a2-8)Neu5Gc(a2-6)Gal(b1-4)GlcNAc
# Procedure, shortened: as §1
# [27] = target: Neu5Gc(b2-6)Gal(b1-4)GlcNAc
# Procedure, shortened: as §1
binder,measurement,setting,value
B1,glycan array binding signal (z-score),Neu5Ac(a2-8)Neu5Ac,-0.402
same,glycan array binding signal (z-score),[1],-0.381
same,glycan array binding signal (z-score),[2],-0.469
same,glycan array binding signal (z-score),[3],-0.303
same,glycan array binding signal (z-score),[4],-0.326
same,glycan array binding signal (z-score),[5],-0.08
same,glycan array binding signal (z-score),[6],2.25
same,glycan array binding signal (z-score),[7],-0.447
same,glycan array binding signal (z-score),[8],-0.429
same,glycan array binding signal (z-score),[9],-0.416
same,glycan array binding signal (z-score),[10],-0.105
same,glycan array binding signal (z-score),[11],1.02
same,glycan array binding signal (z-score),[12],1.67
same,glycan array binding signal (z-score),[13],0.445
same,glycan array binding signal (z-score),Neu5Ac(b2-6)GalNAc,-0.348
same,glycan array binding signal (z-score),[14],-0.34
same,glycan array binding signal (z-score),[15],-0.394
same,glycan array binding signal (z-score),[16],-0.421
same,glycan array binding signal (z-score),[17],-0.43
same,glycan array binding signal (z-score),[18],-0.445
same,glycan array binding signal (z-score),Neu5Gc(a2-3)Gal(b1-4)Glc,-0.384
same,glycan array binding signal (z-score),[19],-0.327
same,glycan array binding signal (z-score),[20],-0.39
same,glycan array binding signal (z-score),[21],-0.202
same,glycan array binding signal (z-score),[22],-0.225
same,glycan array binding signal (z-score),Neu5Gc(a2-6)GalNAc,-0.498
same,glycan array binding signal (z-score),[23],-0.415
same,glycan array binding signal (z-score),[24],-0.359
same,glycan array binding signal (z-score),[25],-0.398
same,glycan array binding signal (z-score),[26],-0.347
same,glycan array binding signal (z-score),[27],1.12
